Measurements from the supplement of paper PMC10320760.
The data scatter; read single values as rough.

B1: Ydj1; a variant is named by its letters at X, in order (parent)
chain: MVKETKFYDILGVPVTATDVEIKKAYRKCALKYHPDKNPSEEAAEKFKEASAAYEILSDPEKRDIYDQFGEDGLSGAGGAGGFPGGGFGFGDDIFSQFFGAGGAQRPRGPQRGKDIKHEISASLEELYKGRTAKLALNKQILCKECEGRGGKKGAVKKCTSCNGQGIKFVTRQMGPMIQRFQTECDVCHGTGDIIDPKDRCKSCNGKKVENERKILEVHVEPGMKDGQRIVFKGEADQAPDVIPGDVVFIVSERPHKSFKRDGDDLVYEAEIDLLTAIAGGEFALEHVSGDWLKVGIVPGEVIAPGMRKVIEGKGMPIPKYGGYGNLIIKFTIKFPENHFTSEENLKKLEEILPPRIVPAIPKKATVDECVLADFDPAKYNRTRASRGGANYDSDEEEQGGEGVQCXXX

Variants of: B1
Assay: enrichment factor, frequency at 37 °C / frequency at 25 °C (thermotolerance selection) (ratio); higher = more growth at 37 °C, higher likelihood of farnesylation
Details: with Saccharomyces cerevisiae ydj1Δ (yWS304); selective temperature 37 °C; reference temperature 25 °C
Method: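 Pooled library of all 8,000 Ydj1-CXXX C-terminal motif variants (native CASQ replaced by C + three variable residues, one codon per amino acid) expressed from a CEN plasmid in S. cerevisiae ydj1Δ (yWS304). The library was grown in SC-Ura liquid to A600 ~2 (~8 generations) at permissive 25 °C or selective 37 °C. Reads from 8 and 7 replicates were pooled and variants counted by NGS. Enrichment factor = frequency at 37 °C / frequency at 25 °C, with a +1 correction; it reports Ydj1-dependent thermotolerance, used as a read-out of farnesylation by yeast FTase.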
Work on DIW yielded an enrichment factor of 1.7.
With EIY the enrichment factor was 0.98.
In the case of AIY, the enrichment factor is reported as 0.772.
Variant FIY has an enrichment factor of 1.74.
Work on GIY yielded an enrichment factor of 1.31.
Work on HIY yielded an enrichment factor of 2.23.
In the case of IIY, the enrichment factor is reported as 1.37.
In the case of KIY, the enrichment factor is reported as 4.25.
For LIY, the enrichment factor was 3.12.
With MIY the enrichment factor was 1.99.
NIY showed an enrichment factor of 1.79.
PIY showed an enrichment factor of 1.19.
In the case of QIY, the enrichment factor is reported as 1.47.
With CIY the enrichment factor was 0.618.
RIY was tested, and the enrichment factor was 0.59.
SIY was tested, and the enrichment factor was 1.33.
TIY showed an enrichment factor of 1.
VIY was tested, and the enrichment factor was 0.988.
In the case of WIY, the enrichment factor is reported as 1.16.
YIY gave an enrichment factor of 2.9.
With DIY the enrichment factor was 1.94.
EKA showed an enrichment factor of 0.162.
AKA gave an enrichment factor of 0.114.
Work on FKA yielded an enrichment factor of 0.821.
GKA was tested, and the enrichment factor was 0.339.
With HKA the enrichment factor was 0.153.
With IKA the enrichment factor was 0.118.
KKA gave an enrichment factor of 0.156.
In the case of LKA, the enrichment factor is reported as 0.255.
With MKA the enrichment factor was 0.0886.
In the case of NKA, the enrichment factor is reported as 0.0891.
PKA gave an enrichment factor of 0.219.
With QKA the enrichment factor was 0.142.
Work on CKA yielded an enrichment factor of 0.126.
RKA showed an enrichment factor of 0.0643.
For SKA, the enrichment factor was 0.165.
Work on TKA yielded an enrichment factor of 0.114.
In the case of VKA, the enrichment factor is reported as 0.275.
With WKA the enrichment factor was 0.909.
With YKA the enrichment factor was 0.118.
With DKA the enrichment factor was 0.0872.
Work on EKC yielded an enrichment factor of 0.224.
Work on AKC yielded an enrichment factor of 0.118.
FKC was tested, and the enrichment factor was 0.332.
GKC gave an enrichment factor of 0.154.
Work on HKC yielded an enrichment factor of 0.16.
IKC showed an enrichment factor of 0.31.
In the case of KKC, the enrichment factor is reported as 0.103.
With LKC the enrichment factor was 0.251.
With MKC the enrichment factor was 0.118.
In the case of NKC, the enrichment factor is reported as 0.0782.
Work on PKC yielded an enrichment factor of 0.324.
In the case of QKC, the enrichment factor is reported as 0.106.
For CKC, the enrichment factor was 0.406.
Variant RKC has an enrichment factor of 0.165.
SKC was tested, and the enrichment factor was 0.163.
Work on TKC yielded an enrichment factor of 0.146.
Work on VKC yielded an enrichment factor of 1.13.
WKC showed an enrichment factor of 0.169.
YKC was tested, and the enrichment factor was 0.309.
DKC showed an enrichment factor of 0.133.
Variant EKD has an enrichment factor of 0.0618.
AKD gave an enrichment factor of 0.154.
In the case of FKD, the enrichment factor is reported as 0.168.
GKD was tested, and the enrichment factor was 0.0827.
In the case of HKD, the enrichment factor is reported as 0.176.
Variant IKD has an enrichment factor of 0.187.
With KKD the enrichment factor was 0.325.
Variant LKD has an enrichment factor of 0.29.
Variant MKD has an enrichment factor of 0.122.
With NKD the enrichment factor was 0.121.
In the case of PKD, the enrichment factor is reported as 0.0521.
QKD showed an enrichment factor of 0.121.
CKD showed an enrichment factor of 0.132.
RKD gave an enrichment factor of 0.227.
For SKD, the enrichment factor was 0.069.
TKD showed an enrichment factor of 0.129.
Work on VKD yielded an enrichment factor of 0.176.
Variant WKD has an enrichment factor of 0.161.
In the case of YKD, the enrichment factor is reported as 0.177.
With DKD the enrichment factor was 0.127.
With EKE the enrichment factor was 0.174.
AKE showed an enrichment factor of 0.301.
FKE showed an enrichment factor of 0.0704.
Work on GKE yielded an enrichment factor of 0.133.
HKE gave an enrichment factor of 0.0939.
Variant IKE has an enrichment factor of 0.188.
Work on KKE yielded an enrichment factor of 0.203.
LKE was tested, and the enrichment factor was 0.143.
MKE gave an enrichment factor of 0.0662.
Work on NKE yielded an enrichment factor of 0.124.
Work on PKE yielded an enrichment factor of 0.0839.
For QKE, the enrichment factor was 0.12.
In the case of CKE, the enrichment factor is reported as 0.158.
Variant RKE has an enrichment factor of 0.0959.
Variant SKE has an enrichment factor of 0.111.
TKE gave an enrichment factor of 0.209.
Variant VKE has an enrichment factor of 0.111.
Variant WKE has an enrichment factor of 0.781.
YKE was tested, and the enrichment factor was 0.146.
Work on DKE yielded an enrichment factor of 0.113.
Work on EKF yielded an enrichment factor of 0.234.
AKF showed an enrichment factor of 0.276.
FKF gave an enrichment factor of 0.43.
For GKF, the enrichment factor was 0.105.
HKF gave an enrichment factor of 0.22.
With IKF the enrichment factor was 0.213.
KKF was tested, and the enrichment factor was 0.134.
LKF was tested, and the enrichment factor was 0.0876.
In the case of MKF, the enrichment factor is reported as 0.133.
Variant NKF has an enrichment factor of 0.287.
In the case of PKF, the enrichment factor is reported as 0.165.
For QKF, the enrichment factor was 0.135.
CKF showed an enrichment factor of 0.288.
In the case of RKF, the enrichment factor is reported as 0.201.
For SKF, the enrichment factor was 0.241.
TKF showed an enrichment factor of 0.214.
VKF was tested, and the enrichment factor was 0.431.
In the case of WKF, the enrichment factor is reported as 1.18.
With YKF the enrichment factor was 0.332.
DKF was tested, and the enrichment factor was 0.169.
Variant EKG has an enrichment factor of 0.172.
With AKG the enrichment factor was 0.172.
FKG gave an enrichment factor of 0.523.
In the case of GKG, the enrichment factor is reported as 0.0891.
Variant HKG has an enrichment factor of 0.0763.
For IKG, the enrichment factor was 0.101.
KKG showed an enrichment factor of 0.186.
Variant LKG has an enrichment factor of 0.174.
MKG showed an enrichment factor of 0.132.
With NKG the enrichment factor was 0.0681.
Work on PKG yielded an enrichment factor of 0.24.
QKG showed an enrichment factor of 0.0591.
CKG showed an enrichment factor of 0.196.
RKG showed an enrichment factor of 0.116.
With SKG the enrichment factor was 0.0854.
TKG was tested, and the enrichment factor was 0.0982.
VKG showed an enrichment factor of 0.148.
In the case of WKG, the enrichment factor is reported as 0.945.
For YKG, the enrichment factor was 0.222.
DKG showed an enrichment factor of 0.165.
Work on EKH yielded an enrichment factor of 0.145.
Work on AKH yielded an enrichment factor of 0.224.
With FKH the enrichment factor was 0.192.
For GKH, the enrichment factor was 0.187.
HKH gave an enrichment factor of 0.294.
IKH gave an enrichment factor of 0.145.
KKH gave an enrichment factor of 0.156.
For LKH, the enrichment factor was 0.151.
With MKH the enrichment factor was 0.149.
Variant NKH has an enrichment factor of 0.226.
Variant PKH has an enrichment factor of 0.163.
With QKH the enrichment factor was 0.102.
CKH showed an enrichment factor of 0.12.
For RKH, the enrichment factor was 0.164.
In the case of SKH, the enrichment factor is reported as 0.127.
For TKH, the enrichment factor was 0.173.
VKH gave an enrichment factor of 0.0884.
WKH was tested, and the enrichment factor was 0.455.
Variant YKH has an enrichment factor of 0.14.
Work on DKH yielded an enrichment factor of 0.166.
EKI showed an enrichment factor of 0.149.
AKI was tested, and the enrichment factor was 0.114.
Work on FKI yielded an enrichment factor of 0.819.
For GKI, the enrichment factor was 0.203.
Variant HKI has an enrichment factor of 0.0998.
In the case of IKI, the enrichment factor is reported as 0.243.
